Measurements reported in the RNAGym collection of RNA variant scans (doi:10.7554/elife.90254).
Read counts are not given, so values of variants with three or more changes are uncertain.

B1: LINE1-full (parent)
chain: UACGUAGGUGGUUUUCCCCUGAUAGUGCUAAGGGGGCCUGGAAGUUUGGACUGGGCAGAGCUCAACACAGCGUGGCAAAGUGGCUGUGGCUAGACUGCCUCUCUGGAUUCCUCGUCACUCAGCAGGGCAUCUCUGAGAGAAAUGCC

Variants of: B1
Experiment: self-cleavage, relative activity (ratio to wild type); higher = more cleavage; in vitro, sequencing; the parent is a self-cleaving ribozyme

| Variant | self-cleavage |
| --- | --- |
| A124G C128U U143C | 0.05 |
| A42G A69U A129G | 0.09 |
| A24U A57G A77U G83U U96A | 0.02 |
| U14C A59G G82A | 0.08 |
| A31U U96C C99U A129G | 0.15 |
| U15A A31G A65G C71U | 0 |
| G41A C123U U134C | 1.34 |
| G80A U85A U143A | 0.08 |
| U46C A77G C113A | 1.58 |
| U85C U100C U104A U130C | 0 |
| G36U A64U U115A U134A C146U | 0.4 |
| U13C A94G A121G C146U | 0 |
| U1C U102C C133U | 0.84 |
| U5C U115C U134C | 0.94 |
| U15C U26C U91C | 0.42 |
| A107G U132A A140U | 1.72 |
| U12C U20A A69G | 0.36 |
| G35U C66G C99U | 0.03 |
| G10A U12G A69G A142G | 0.6 |
| C63U U100C A117G | 0.56 |
| U20G A22G U46C A140G | 1.05 |
| U26C G83U U115A U130C | 0.22 |
| U100C C116U A140G | 1.95 |
| U52A A77G C116U | 1.39 |

| Variant | self-cleavage |
| --- | --- |
| A42G U115A C123U | 1.53 |
| U1C U73C U119A C145A | 0.98 |
| U12C A79G C123A | 1.14 |
| A65U U73A A124U A141G | 0.24 |
| A31G A92G A124G | 0 |
| A22G C28U U115A | 0.94 |
| U112A A124U C146A | 1.48 |
| A59G A64U U102C | 0.06 |
| U62A U73C A117U U134C | 0.1 |
| U62C U100C U104C | 0 |
| U5C G7A A50G | 0.82 |
| U39A U100A G122U A141G U143C | 0 |
| A2G U62C A121G | 0 |
| U12C A22G A79G A94G U143C | 2.12 |
| A59G U62C U119C | 0.05 |
| U9G A64U A129G C133U | 0.51 |
| U14C A124G A129U U130C | 1.58 |
| U13A U29A G75U | 0.7 |
| A6G U62C A79G U85C | 0 |
| C37G A42G U81A | 2.23 |
| A78G U87A C98U A142G | 0.08 |
| U26G A59C U62C A77U C90A | 0.07 |
| A22G A57U A69G U81C | 0 |
| U87C U132C A142G | 0.11 |

| Variant | self-cleavage |
| --- | --- |
| C17U G74A A107G A117G | 1.3 |
| G7A U15C U47C A117U | 0.99 |
| U13C U132C A142G | 1.49 |
| A59G A78G U143C | 0 |
| U29A G33A G35U U85C | 0.44 |
| C51A U85C C131U | 0.17 |
| U87C A94G C98U A117G | 0.07 |
| U1C U9C U104C | 0.71 |
| U9A U14A U47C | 2.45 |
| G83A U85C A124C | 0.03 |
| A42G U45G A92G U130C A138G | 0 |
| U15C U81A A124G A129G | 1.83 |
| U5C U12G A42G U46C A59G | 0 |
| U47A U96A A107G A141G | 0.09 |
| U20C U23C A64U A138G | 0.8 |
| U9A C16U A67U | 0.17 |
| U15A U46A U47C U85A | 0.03 |
| U46A U87A U134A | 0.07 |
| A69G U132A A140G | 1.28 |
| U45C A78G C111U | 1.01 |
| U13A G25U A57U U87C U119A A124G | 0.14 |
| U47A U87C A124C U143A | 0.16 |
| U9A A31U A42U C51U A57G U81C | 0.67 |
| U102C U104C G125A | 1.81 |

| Variant | self-cleavage |
| --- | --- |
| G35A A43U U62C A65U A138G A142G | 0.04 |
| U12A A42G U45C A94G | 0 |
| A43G C66U A67G C68U A107G U108C | 0.2 |
| A30C A67G C103A C110U | 0.3 |
| G25A U112C C131U | 1.79 |
| U9A A31G U47C | 2.3 |
| U9A G72A A140G | 0.77 |
| U73C G82U A107G | 0 |
| U29C A64G A107G | 1.93 |
| U13C U23C C128U | 1.43 |
| U96A U102G A107U U132A | 0.2 |
| U15C C16U U87A | 0.07 |
| U26C A64U A94G | 0 |
| G49A A64U A69G | 0.04 |
| U20C U26A U29A | 0.59 |
| U52C C71U U100A U115A A117U | 0.07 |
| A78G C90A A140G | 0 |
| A50G C71U A136G | 0.28 |
| C66U C71U C113U | 0.04 |
| G53U U100C U104A A140G U143C | 0.61 |
| G4A G49U C146U | 0.77 |
| U1A U26A A77G | 0.48 |
| G4A U20G G34U A42G A77U C118U | 1.06 |
| U47A A57U A77G C118U | 0.08 |

| Variant | self-cleavage |
| --- | --- |
| A2G A67G A79G | 0 |
| U5C U9C A43G | 1.02 |
| U46C A50U U73A C131U | 1.7 |
| A59G A65G A117G | 0 |
| G33A U45C A65U A136G | 0.32 |
| G32U A77G A92G A136G | 0.3 |
| G48A U81C G125U | 1.33 |
| U104A U119C A138G | 2.45 |
| U13C U108C U130C | 2.47 |
| A42U A94C G126U | 0.14 |
| A22G A92G U119C | 0.31 |
| A2G U9C A43U A140G | 1.15 |
| A2G U87A A141G | 0.48 |
| A24G A43U A57G | 0.17 |
| A64G U132A C146U | 0.39 |
| U12C A30G A124U A140G | 1.45 |
| U12C A50G U85C U109A | 0.25 |
| U45C G54A A65G U85C | 0.05 |
| A43G G72A U143C | 1.92 |
| U9C U15C A94G G97A | 0.12 |
| U5C U29G U85A G88A U132C A142U | 0.04 |
| U12C G49A A65U U87A U96C C99U C101U U119C U130C | 0.01 |
| G48U A69G C123U | 0.31 |
| U45C U102C U108C | 0.77 |

| Variant | self-cleavage |
| --- | --- |
| U13A C84U U109C | 0.1 |
| A43G U47A A78U A117U G127A U130A | 1.97 |
| G58A C63A A65G C66U G83A | 0.04 |
| A77U G80A U115C | 2.54 |
| G33C U45C A79G | 1.53 |
| G53A A65G U134C | 0.05 |
| G40A A79G A107U U112A | 1.12 |
| U20C G34A A117G | 1.59 |
| A64U A78G G114A | 0.22 |
| G7U U102C U130C | 0.48 |
| U1C A136G U143C | 0.97 |
| U13C U46C U130C | 1.5 |
| G4A A77U U81A A121U | 2.52 |
| G32C G34A A43U A57G U108A G122U | 1.16 |
| A31G C37U A79G U91A A136U | 0.49 |
| U26G A31U C51U | 0.79 |
| U23A G34A U112C | 1.42 |
| U9C A69U C128A | 0.02 |
| U5A A94U A136G | 0.31 |
| C3U U12G U73A A78G | 0.51 |
| U12C G32A C63A | 0.09 |
| G21U U100C U130C | 1.78 |
| U1C A65U U102C A121G A136G | 0 |
| G48A A64G U85C G126C | 0.05 |

| Variant | self-cleavage |
| --- | --- |
| C17U A77G U87C U143C | 0.35 |
| U9C G36A C95A U102C | 0.07 |
| U14C U23C G32U | 0.61 |
| U15A U20G U109G A121U A129U | 1.93 |
| U14C U26C U87C U91A | 0 |
| G4A U39G A43U A59U U85C U119C | 0 |
| U62C U132A U143A | 0.07 |
| A77G U81A A124U | 1.11 |
| U20A A22U U39A A69G U108C | 0 |
| U12C U23A U39C | 1.41 |
| G8U U46A U119C | 1.71 |
| U96C U130C A140G A142G | 1.23 |
| U9A U85C C120U G122U | 0.17 |
| A2U G8A A43G G48U A77U U96C U143C | 0.04 |
| U45C A50G A69C G74A | 0 |
| A2U U9A U87C | 0.57 |
| U46G A57G A140G | 0.22 |
| U12C A30G U39C U130C A136G | 2.63 |
| A42G G55A A77G | 0.39 |
| U1C A2G U62C | 0.62 |
| C17U U47A A64G U115C A117G U119A | 0 |
| U9A U15C U62C G89A A136G A138G | 0 |
| U39G A94U C146U | 0.44 |
